Reference: publication PMC4336329 (PLoS ONE, 2015)
The campaign covered roughly 310,000 compounds. About 2,200 (0.71%) showed an effect of 50% or more. The effect is printed as a negative number. This is one part of the list.

What follows are compounds tested against human ether-à-go-go-related gene (hERG) potassium channel (human, UniProt Q12809) (assay: primary screen, population patch clamp on CHO cells stably expressing hERG).
human ether-à-go-go-related gene (hERG) potassium channel, sequence (Q12809 whole entry, looked up): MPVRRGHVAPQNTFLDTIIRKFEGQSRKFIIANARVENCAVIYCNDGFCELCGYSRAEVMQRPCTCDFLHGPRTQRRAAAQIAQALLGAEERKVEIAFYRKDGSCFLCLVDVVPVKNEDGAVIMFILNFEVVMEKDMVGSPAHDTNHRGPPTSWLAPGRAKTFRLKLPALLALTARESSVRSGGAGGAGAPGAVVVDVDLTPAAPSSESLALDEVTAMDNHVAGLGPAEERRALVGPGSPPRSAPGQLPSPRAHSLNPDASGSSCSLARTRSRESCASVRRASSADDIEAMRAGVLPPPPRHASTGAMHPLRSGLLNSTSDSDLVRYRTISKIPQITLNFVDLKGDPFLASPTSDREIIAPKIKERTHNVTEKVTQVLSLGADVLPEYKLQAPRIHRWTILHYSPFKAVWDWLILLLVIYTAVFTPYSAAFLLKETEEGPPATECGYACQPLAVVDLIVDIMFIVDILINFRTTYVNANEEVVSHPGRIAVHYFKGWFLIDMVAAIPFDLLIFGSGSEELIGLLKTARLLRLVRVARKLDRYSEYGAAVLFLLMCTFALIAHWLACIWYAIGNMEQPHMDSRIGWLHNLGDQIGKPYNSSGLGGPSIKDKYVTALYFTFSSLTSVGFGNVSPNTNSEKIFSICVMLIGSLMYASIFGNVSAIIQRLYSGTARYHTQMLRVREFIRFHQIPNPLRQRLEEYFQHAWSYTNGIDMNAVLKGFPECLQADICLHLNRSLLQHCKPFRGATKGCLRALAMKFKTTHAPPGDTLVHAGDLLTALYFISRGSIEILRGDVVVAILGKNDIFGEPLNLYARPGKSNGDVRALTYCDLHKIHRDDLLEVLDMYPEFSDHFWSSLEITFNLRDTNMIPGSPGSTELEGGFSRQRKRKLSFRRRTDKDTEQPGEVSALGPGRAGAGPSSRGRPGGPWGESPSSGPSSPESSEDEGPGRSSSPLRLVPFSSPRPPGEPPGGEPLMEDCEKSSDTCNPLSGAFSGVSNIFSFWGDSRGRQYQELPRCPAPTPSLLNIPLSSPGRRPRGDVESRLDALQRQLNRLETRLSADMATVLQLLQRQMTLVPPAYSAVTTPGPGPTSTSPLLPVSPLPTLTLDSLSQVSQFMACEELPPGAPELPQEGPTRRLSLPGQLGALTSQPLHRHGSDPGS

SMILES	hERG current change (%, negative = inhibition) at 1uM
COc1ccc(-n2ncc3c(N4CCc5ccccc54)ncnc32)cc1	6.47%
CN(CCOCCOc1ccc(F)cc1)Cc1ccccc1.O=C(O)C(=O)O	0.338%
C#Cc1ccc([C@@H]2C=C(C(=O)O)O[C@H](OCCCCO)C2)cc1	13.3%
Br.COc1ccc(-c2csc(Nc3ccc(S(=O)(=O)Nc4cc(OC)nc(OC)n4)cc3)n2)cc1	17.4%
CC(=O)C1C2c3ccccc3O[C@@]1(C)N=c1s/c(=C/c3ccoc3)c(=O)n12 (stereo partly drawn)	8.27%
N#CC(c1ccncc1)(c1ncc(C(F)(F)F)cc1Cl)N1CCOCC1 (stereo not drawn)	6.01%
CCN(CC)C(=O)CSCc1cnn(-c2ccccc2)c1-n1cccc1	-9.24%
COc1ccc(C)cc1S(=O)(=O)N1CCCCCC1	4.71%
COc1cccc(-c2noc(CCC(=O)Nc3cccnc3)n2)c1	2.2%
COC(=O)C1=CN(c2ccc(F)cc2)C=C(C(=O)OC)C1c1cccc([N+](=O)[O-])c1	0.153%
CCOc1ccc2[nH]c3c(NCCOC)ncnc3c2c1	2.44%
CC1CC(C)CN(S(=O)(=O)c2ccc3c(c2)oc(=O)n3CC(=O)NCCCOC(C)C)C1 (stereo not drawn)	11.7%
Cc1ccc(Cn2c(N)nc3ccccc32)cc1	8.08%
CN1CCN(Cc2cn(C)c3ccccc23)CC1CCO (stereo not drawn)	22.7%
Cc1cc(C)n(CC(O)Cn2c3ccc(Br)cc3c3cc(Br)ccc32)c(=O)n1 (stereo not drawn)	17.3%
CCOc1ccccc1N(C)C(=O)C1CCN(S(=O)(=O)c2cccc3nonc23)CC1	-10.3%
CCOC(=O)C(C)Oc1ccc(=O)n(-c2ccccc2)n1 (stereo not drawn)	14%
COc1cc2c(C)nc3onc(-c4ccccc4)c3c2cc1OC	10.4%
Br.NCCCSC1=NCCCN1	8.86%

SMILES	hERG current change (%, negative = inhibition) at 1uM
COc1nc(OC)nc(N2CCCCCC2)n1	13%
CCOC(=O)N1CCN(C(=O)CN(Cc2ccc(Cl)cc2)S(C)(=O)=O)CC1	0.2%
O=C(CSc1cc([N+](=O)[O-])cc(S(=O)(=O)Cc2ccccc2)c1)NC1CC1	11.7%
Cc1ccc(S(=O)(=O)NC2(C(F)(F)F)NC(=O)N(c3ccccc3F)C2=O)cc1 (stereo not drawn)	7.64%
COc1ccc([N+](=O)[O-])cc1NC(=O)CC1SC(=Nc2cccc(C)c2C)N(/N=C/c2cccc(OC)c2OC)C1=O (stereo not drawn)	17.8%
CCCC/S(C)=N/S(=O)(=O)c1ccc(C)cc1 (stereo not drawn)	-1.98%
CCOc1ccc(N(CC(=O)NN=C2CCCC2)S(C)(=O)=O)cc1	11%
Cc1ccsc1/C=N/Nc1ncc(Cl)cc1Cl	11%
COc1cc(Oc2nc(C(F)(F)F)nc3ccccc23)ccc1C=O	19%
COC(=O)c1cc(Br)c(=O)n(CCc2ccc(F)cc2)c1	-3.04%
O=C(N/N=C/c1ccc[nH]1)c1ccc(COc2cccc3cccnc23)cc1	3.12%
C#CC1(O)CCC2C3CCC4=C/C(=N/OCC(=O)NCC(=O)NC(C(=O)O)C(C)C)CC[C@]4(C)C3CC[C@@]21C (stereo partly drawn)	6.19%
Cc1cc(C)cc(NC(=O)CCc2c(C)nn(-c3ccc(N4CCCCC4)nn3)c2C)c1	11.5%
CCn1cc(CCC(=O)NCCc2ccccc2)c2ccccc21	13.4%
NC(=O)CC(NC(=S)NCc1ccccc1)C(=O)O (stereo not drawn)	5.58%
O=C(NC(Nc1ccccn1)C(Cl)(Cl)Cl)c1ccccc1 (stereo not drawn)	12.5%
Nc1nc(-c2ccco2)c(-c2ccco2)s1	10.8%
COc1ccc(NS(=O)(=O)c2cccc(C(=O)NNC(=O)c3ccc(C)o3)c2)cc1	10.2%
O=C(CSc1nnc(-c2ccccc2)c(-c2ccccc2)n1)N1CCOCC1	-4.68%

SMILES	hERG current change (%, negative = inhibition) at 1uM
O=C1C2C(c3ccccc3)C=CC(c3ccccc3)C2C(=O)N1c1cccnc1 (stereo not drawn)	11.2%
O=C(CNC(=O)c1ccco1)Nc1ccc(Cl)cc1	17.1%
O=C(NCc1ccccn1)C(=O)NCC1OCCN1S(=O)(=O)c1ccc(Cl)cc1 (stereo not drawn)	6.39%
Cc1ccnc(-n2c(-c3ccccc3)nc3ccccc3c2=O)c1	7.16%
CCC(=O)Nc1ccccc1C(=O)OC(c1ccccc1)c1ccccc1	-1.77%
Cc1sc(NC(=S)NC(=O)c2ccco2)c(C#N)c1C	0.978%
COC(=O)c1oc2c(c1C)C(=O)CCC2	7.67%
O=C(O)c1ccc(S(=O)(=O)N2CCC(c3nc(-c4ccccc4Cl)no3)CC2)cc1	14.1%
CC1Cc2ccccc2N1C(=S)NC(=O)c1ccco1 (stereo not drawn)	13.5%
Cc1ccccc1NC(=O)CN1C(=O)COc2ccc(Cl)cc21	9.12%
COC(=O)c1cccc(S(=O)(=O)N(Cc2ccco2)Cc2cc3cc(OC)c(OC)cc3[nH]c2=O)c1	0.006%
CN(C(=O)CN1C(=O)NC(C)(c2cccc(Br)c2)C1=O)C1CCCCC1 (stereo not drawn)	9.44%
COc1ccc(-c2[nH]ncc2CN2CCCN(c3ccccc3)CC2)c(F)c1	9.52%
COc1cc2c(C(=O)O)c(C)n(C)c2cc1Br	14.7%
CCOC(=O)N1N=C(CC)CC1(O)C(F)(F)F (stereo not drawn)	4.11%
CC(=O)c1cccc(-n2nnnc2SCC(=O)NNC(=O)C(C)C)c1	12.9%
Cc1ccccc1Nc1nnc(C)c(=O)[nH]1	-5.49%
Cc1[nH]c(C)c(S(=O)(=O)N2CCN(c3cccc(Cl)c3)CC2)c1C(=O)N1CCCCC1	12.3%
Cn1c(Cc2cccs2)nnc1SCC(=O)N1CCc2ccccc21	0.0674%
